In PubChem BioAssay AID1963576 (National Center for Advancing Translational Sciences (NCATS), 2024):
Hit rate of the full screen: of about 46,000 compounds, about 60 (0.1%) were called active. Not shown: some 3% with an inconclusive outcome. Calls come from the whole dose curve; as a rule, active = well fitted inhibition curve with a large enough effect; inconclusive = small, poorly fitted or top-dose-only effect; inactive = no such curve, though single readings can be large or run the other way. The list shows a part of the results.

Assay: Primary qHTS assay for Inhibitors of ovarian cancer metastasis using an organotypic tumor microenvironment (TME) model.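 For activity change, negative = inhibition: plate controls were DMSO wells for no effect and tomatine positive control wells for full effect.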 Note: nearly all actives have a fitted effect of over 65% in size.
Conditions: SKOV3ip1-GFP adhesion/invasion on 3D omental model, fluorescence; series mostly up to 45.8 µM; activity change, negative = inhibition: at the top concentration
How it was run: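 A 3D layer of primary human omental fibroblasts, mesothelial cells, fibronectin and collagen I, grown 48 hr, received SKOV3ip1-GFP cells in serum-free medium plus compounds at 0.36-46 umol/L. After 2 hr RT and 16 hr 37 C, fixed adherent GFP cells were counted; normalized to DMSO and tomatine.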

outcome, inactive:
Fc1ccc(-c2cn3cc(Cc4ccccc4)sc3n2)cc1
N#Cc1ccccc1NC(=O)CSc1nnc(N)s1
CCN(C(=O)c1cn(CC)c(=O)c2cc(OC)c(OC)cc12)c1ccc(C)c(C)c1
COc1cccc(-n2nnc(-c3nc(-c4ccccc4F)no3)c2C)c1
O=C(Nc1cccc(F)c1F)C1CCN(c2ncccn2)CC1
COc1ccc(OC)c(CNC(=O)CN2CC(C)Sc3ccccc32)c1 (stereo unspecified)
COc1ccc(NC(=O)c2csc3c2CCCCC3)cc1
COc1ccc(S(=O)(=O)c2nnn(-c3cc(Cl)c(OC)cc3OC)c2C)cc1
COc1ccc(OC)c(NC(=O)CN(C)S(=O)(=O)c2ccc(C(=O)N3CCOCC3)s2)c1
CCC(C(=O)Nc1cccc(Cl)c1C)n1nc(-c2ccc(C)cc2)ccc1=O (stereo unspecified)
COc1ccc(Cn2c(=O)[nH]c3cc(C(=O)N4CCN(c5cccc(Cl)c5)CC4)ccc3c2=O)cc1
Cn1c(=O)n(-c2ccc(Br)cc2F)c(=O)c2sc3ccccc3c21
Cc1ccn2c(=O)c(C(=O)NCCc3ccccc3)c(O)nc2c1
CSc1ccc(CCNC(=O)c2cnn(-c3ccccc3)c2-n2cccc2)cc1
O=C(Nc1cccc(Cl)c1)N1CCSc2ccccc21
COc1ccc(N2CCN(C(=O)C3CCCN(S(=O)(=O)c4ccc5c(c4)CCCN5C(C)=O)C3)CC2)cc1 (stereo unspecified)
Cc1ccc(NC(=O)C2CCN(c3nc4ccccc4nc3C(F)(F)F)CC2)cc1F
COc1ccc(Cl)cc1NS(=O)(=O)c1cc(Br)cc2c1N(C(=O)C1CC1)CC2

Activity change, negative = inhibition, inactive:
COc1ccc(CNC(=O)c2cnc(N3CCOCC3)c3ccccc23)cc1 5.19%
Cc1ccc(N2CCN(S(=O)(=O)c3ccc4[nH]c5c(c4c3)CCCCC5)CC2)c(C)c1 12.4%
CC1CCc2c(sc3nnn(CC(=O)Nc4ccc(Cl)cc4)c(=O)c23)C1 (stereo unspecified) 2.95%
COc1cccc(Nc2c(C(N)=O)cnc3c(C)cc(S(=O)(=O)c4cccc(C(=O)N(C)C)c4)cc23)c1 -8.73% [at 23.2 µM]
O=C1COc2ccc(-c3cc(-c4ccccc4)c4c(n3)-c3cc(Cl)ccc3OC4)cc2N1 2.91%
Cc1cccc(NC(=O)CCc2c(C)nc3c(c(C)nn3C(C)(C)C)c2C)c1C -7.05%
Cn1c(=O)c2sccc2n2c(CCCC(=O)NCc3ccccc3)nnc12 -24.9%
COc1ccc(-c2nc3c(c(SCC(=O)N4CCCCC4)n2)Cc2c(CO)cnc(C)c2O3)cc1 4.2%
CSc1cccc(NC(=O)Cn2ncn3c(cc4ccccc43)c2=O)c1 17.6%
COC(=O)c1cc2occc2n1CC(=O)Nc1ccc(C(C)C)cc1 1.84%
O=C(Nc1ccc(F)cc1)N1CCN(C(=O)c2nsc3ccccc23)CC1 8.52%
Fc1ccccc1N1CCN(c2ncc3c(n2)CCN(Cc2cc(Br)cs2)C3)CC1 -23%
CCOc1ccccc1NC(=O)C(c1ccccc1)N1Cc2ccccc2C1=O (stereo unspecified) -6.84%
Cn1nnc2c(N3CCN(c4cccc(C(F)(F)F)c4)CC3)ncnc21 5.25%
Cc1cccc(N2CCN(C(c3ccccc3)c3nnc(-c4ccccc4Cl)o3)CC2)c1C (stereo unspecified) -2.57%
CCCN(C(=O)c1nn(-c2ccc(OC)cc2)c(=O)c2c1c1ccccc1n2C)c1ccc(CC)cc1 0.637%
Cc1ccc(Cc2c(C)nc3nc(SCC(=O)NC(C)c4ccccc4)nn3c2C)cc1 (stereo unspecified) -25.9%
Cc1ccc(Cc2nc3ccccc3nc2SCC(=O)NCCC(C)C)cc1 -4.75%
COc1cccc(-c2nc(SCc3cc(=O)c4ccc(C)c(C)c4[nH]3)n[nH]2)c1 0.0223%
CCOc1ccc(NC(=O)Cn2cc(C(=O)c3ccc(CC)cc3)c(=O)c3cc(C)ccc32)cc1 -25.5%
CCOc1cccc(C(=O)Nc2ccc(S(=O)(=O)N(Cc3ccccc3)c3ccccc3)cc2)c1 -6.44%
COc1ccc(C(=O)NCC(c2cccnc2)N2CCc3ccccc3C2)cc1OC (stereo unspecified) 4.35%
COC(=O)c1cc2occc2n1Cc1nc(-c2ccccc2F)oc1C -12.6%
Cn1c(=O)c2c(-c3ccccc3)n3c4ccccc4nc(-c4ccccc4)c3c2n(C)c1=O 8.44%
O=C(CSc1nc2c([nH]c3ccccc32)c(=O)n1-c1ccc(F)cc1)NCc1ccccc1 -5.38%
CCOCCCn1c(SCC(=O)Nc2ccc(C(C)C)cc2)nc2c(sc3ccccc32)c1=O 3.95%
Cc1ccc(CN2CCC(CNc3ncnc4onc(-c5ccc(F)cc5)c34)CC2)cc1 1.11%
O=C(Nc1cccc(-c2nc3cc(Cl)ccc3o2)c1)c1cc([N+](=O)[O-])ccc1N1CCOCC1 1.77%
CCn1c(=O)c2cc(C(=O)Nc3cc(F)ccc3F)sc2c2ccccc21 4.61%
COc1ccc(CN2C(=O)c3oc4ccccc4c(=O)c3C2c2ccc(O)cc2)cc1 (stereo unspecified) 1.29%
COc1ccc(C)cc1NC(=O)N(Cc1ccc(C)o1)C1CCN(C(C)=O)CC1 -10.4%
COc1ccccc1NC(=O)Cn1c(=O)n(Cc2ccccc2)c(=O)c2sc3ccccc3c21 -10.2%
Cc1ccc(-c2nnc(Nc3cccc(Cl)c3)c3ccccc23)cc1S(=O)(=O)N1CCOCC1 0.132%
O=C(Cn1cnc2c(oc3ccccc32)c1=O)Nc1ccccc1C(F)(F)F -1.64%
CCC(=O)Nc1cc(C)c(O)c(-c2nc3ncccc3o2)c1 6.98%
CC1CCN(C(=O)Cn2cc(SCC(=O)NCc3ccccc3Cl)c3ccccc32)CC1 7.92%
CCCc1nc2sc3c(N4CCC(C)CC4)ncnc3c2c2c1CCCC2 0.735%
CC(C)COc1cccc(C(=O)Nc2ccc(-c3nc4ncccc4o3)cc2)c1 -9.46%
CC(C)COc1ccc(C(=O)Nc2ccc(S(=O)(=O)Nc3ncccn3)cc2)cc1 -2.84%
O=C(NCc1cccc(Cl)c1)c1cc2ccc3cccnc3c2[nH]1 -7.1%
Cc1cc(C)c(NC(=O)CSc2nc3ccccc3nc2N2CCCCC2)c(C)c1 -2.82%
CC(C(C)N1CC(=O)NC(=O)C1)N1CC(=O)NC(=O)C1 (stereo unspecified) 4%
CCOC(=O)c1ccc(CN(Cc2ccc(F)cc2)S(=O)(=O)c2cc(C(=O)Nc3cccc(C(F)(F)F)c3)ccc2F)cc1 4.8%
COc1cc2c(=O)c(S(=O)(=O)c3ccc(F)cc3)cn(Cc3ccc(Cl)cc3)c2cc1OC 2.77%
CCOc1ccc(NC(=O)CN2C(=O)C(c3ccccc3)=NC23CCC(C)CC3)cc1 (stereo unspecified) -13.4%
O=C(NC1CCCCCC1)c1ccc2c(c1)sc1nc(-c3ccc(F)cc3)cn12 2.24%
CCCN1C(C(=O)c2ccccc2)=C(OC(=O)COc2ccccc2)c2ccccc2S1(=O)=O -23.4%
Cc1ccc(Cl)cc1NC(=O)C(C)n1nnc2sc3c(c2c1=O)CCCC3 (stereo unspecified) -2.08%
Cc1cccc(N2CCN(S(=O)(=O)c3ccc4c(c3)CCCN4C(=O)C3CCC3)CC2C)c1 (stereo unspecified) -8.66%
COc1ccc(C2C(C(N)=O)=C(C)Nc3nc(CCCO)nn32)c(OC)c1 (stereo unspecified) -1.47%
CC(=O)c1ccc(NC(=O)c2noc3c2CCc2ccccc2-3)cc1 -1.28%
O=C(Nc1ccc(C(=O)OCc2cc(=O)n3c4c(sc3n2)CCCC4)cc1)c1ccccc1 -9.26%
CCOc1ccc(NC(=O)N2CCC(C(N)=O)(N3CCCCC3)CC2)cc1 3%
Cc1nc(NC(=O)N2CCC[C@@H]2C(N)=O)sc1-c1ccnc(C(C)(C)C(F)(F)F)c1 -11.1%
COc1cccc(Cn2nnc(C(=O)Nc3cc(C)ccc3C)c2N)c1 -7.69%
CCCS(=O)(=O)c1c(S(=O)(=O)CCC)c2cc(CC)ccn2c1C(=O)c1ccc(OC)cc1 -4.63%
COc1ccc(CCNC(=O)c2cnc3ccc(C)cn3c2=O)cc1 10.3%
Cc1ccc2nc(NC(=O)CSc3nccn3Cc3ccc(Cl)cc3)sc2c1 -17.8%
O=C(NC1CC(=O)N(c2cccc(F)c2)C1)c1ccc(S(=O)(=O)N2CCCC2)cc1 (stereo unspecified) -1.92%
O=C(CCc1nc(-c2cccs2)no1)Nc1ccccc1[N+](=O)[O-] 2.3%
O=C(Cn1c(=O)n(Cc2ccccc2)c(=O)c2sc3ccccc3c21)NCc1ccccc1Cl 22.5%
CCOc1ccccc1CNC(=O)Cn1c(-c2ccccc2)cc(C(C)=O)c1C -0.005%
Cc1cccc(NC(=O)c2cc(S(=O)(=O)N3CCc4ccccc43)ccc2F)c1C 2.1%
CCN(CC)c1cc(C)c2cc(NC(=O)c3cccc(F)c3)ccc2n1 -5.67%
Cc1ccc(N2C(=O)CSC23C(=O)N(CC(=O)NCCc2ccccc2)c2ccccc23)cc1C (stereo unspecified) 48.6%
CCCn1cc(S(=O)(=O)c2ccccc2)c(=O)c2cc(F)c(N3CCCCC3)cc21 4.99%
CCOc1ccccc1NC(=O)c1c(NC(=O)COc2ccccc2)sc2c1CCCCC2 -27.4%
CC(NC(=O)CCCC1=NS(=O)(=O)c2ccccc2N1)c1ccccc1 (stereo unspecified) -20.8%
CCOC(=O)c1cnc2c(ccc3ccccc32)c1Nc1ccccc1OCC 1.57%
COc1ccc(OC)c(-c2cc(C(=O)NCCc3ccccc3)c3c(-c4ccc(C)cc4)[nH]nc3n2)c1 23.8%
COCCCNC(=O)CS(=O)Cc1nc(-c2cccc(C)c2)oc1C (stereo unspecified) 6.16%
CCOC(=O)c1cc(-c2ccccc2)n(-c2cccc(C(=O)Nc3cccc(F)c3)c2)c1C -12.3%
COc1ccc(C(=O)Nc2nnc(S(=O)(=O)N3CCCCCC3)s2)cc1OC 5.14%
CCC(C)n1c(=N)c(C(=O)NCc2ccccc2)cc2c(=O)n3cc(C)ccc3nc21 (stereo unspecified) 1.77%
CCc1cccc(C)c1NC(=O)CC1Oc2ccc(C)cc2NC1=O (stereo unspecified) -25.6%
COc1ccc(CCNC(=O)c2sc3nc4n(c(=O)c3c2C)CCCC4)cc1OC 13.4%
COc1ccc(C(=O)c2oc3ccccc3c2NC(=O)COc2ccccc2)cc1 20.7%
Cc1ccc(CNC(=O)CCc2c(C)nc3c(c(C)nn3-c3ccccc3)c2C)cc1 -9.84%
